Data as given in the supplement of paper PMC8728848.
Some of the results follow.

Assays:
Assay in all cases: glycan array binding signal (z-score within array); higher = stronger binding
Conditions in all cases: glycan notation: IUPAC condensed, linker removed
[1] = biological target: GlcNAc(b1-4)Gal(b1-4)GlcNAc
How it was run: (§1)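 The binding signal is a Z-score computed within each array. Data were drawn from 3228 arrays in the Consortium for Functional Glycomics database, restricted to those with a known protein sequence. Scores were averaged over arrays of the same protein sequence at different concentrations or buffers, and over linkers, and negative values can be taken as non-binding.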

GlcNAc(b1-4)GlcNAc = biological target: GlcNAc(b1-4)GlcNAc
How it was run: as §1

[2] = biological target: GlcNAc(b1-4)GlcNAc(b1-4)GlcNAc
How it was run: as §1

[3] = biological target: GlcNAc(b1-4)GlcNAc(b1-4)GlcNAc(b1-4)GlcNAc(b1-4)GlcNAc
How it was run: as §1

[4] = biological target: GlcNAc(b1-4)GlcNAc(b1-4)GlcNAc(b1-4)GlcNAc(b1-4)GlcNAc(b1-4)GlcNAc
How it was run: as §1

[5] = biological target: GlcNAc(b1-4)[GlcNAc(b1-6)]GalNAc
How it was run: as §1

[6] = biological target: GlcNAc(b1-6)Gal(b1-4)GlcNAc
How it was run: as §1

GlcNAc(b1-6)GalNAc = biological target: GlcNAc(b1-6)GalNAc
How it was run: as §1

GlcNAc3Prop(b1-4)GlcNAc = biological target: GlcNAc3Prop(b1-4)GlcNAc
How it was run: as §1

[7] = biological target: GlcNAc6S(b1-3)Gal(b1-4)GlcNAc
How it was run: as §1

Kdn(a2-3)Gal(b1-3)GalNAc = biological target: Kdn(a2-3)Gal(b1-3)GalNAc
How it was run: as §1

Kdn(a2-3)Gal(b1-3)GlcNAc = biological target: Kdn(a2-3)Gal(b1-3)GlcNAc
How it was run: as §1

Kdn(a2-3)Gal(b1-4)Glc = biological target: Kdn(a2-3)Gal(b1-4)Glc
How it was run: as §1

Kdn(a2-3)Gal(b1-4)GlcNAc = biological target: Kdn(a2-3)Gal(b1-4)GlcNAc
How it was run: as §1

[8] = biological target: Kdn(a2-3)Gal(b1-4)[Fuc(a1-3)]GlcNAc
How it was run: as §1

Kdn(a2-6)Gal(b1-4)GlcNAc = biological target: Kdn(a2-6)Gal(b1-4)GlcNAc
How it was run: as §1

[9] = biological target: Man(a1-2)Man(a1-2)Man(a1-3)Man
How it was run: as §1

[10] = biological target: Man(a1-2)Man(a1-2)Man(a1-6)[Man(a1-3)]Man
How it was run: as §1

Man(a1-2)Man(a1-3)Man = biological target: Man(a1-2)Man(a1-3)Man
How it was run: as §1

[11] = biological target: Man(a1-2)Man(a1-3)[Man(a1-2)Man(a1-6)]Man
How it was run: as §1

[12] = biological target: Man(a1-2)Man(a1-3)[Man(a1-2)Man(a1-6)]Man(a1-6)[Man(a1-2)Man(a1-2)Man(a1-3)]Man
How it was run: as §1

[13] = biological target: Man(a1-2)Man(a1-3)[Man(a1-2)Man(a1-6)]Man(a1-6)[Man(a1-2)Man(a1-2)Man(a1-3)]Man(b1-4)GlcNAc(b1-4)GlcNAc
How it was run: as §1

[14] = biological target: Man(a1-2)Man(a1-3)[Man(a1-6)]Man(a1-6)[Man(a1-2)Man(a1-3)]Man(b1-4)GlcNAc(b1-4)GlcNAc
How it was run: as §1

[15] = biological target: Man(a1-2)Man(a1-6)[Man(a1-3)]Man(a1-6)[Man(a1-2)Man(a1-2)Man(a1-3)]Man
How it was run: as §1

[16] = biological target: Man(a1-2)Man(a1-6)[Man(a1-3)]Man(a1-6)[Man(a1-2)Man(a1-2)Man(a1-3)]Man(b1-4)GlcNAc(b1-4)GlcNAc
How it was run: as §1

Man(a1-3)[Man(a1-6)]Man = biological target: Man(a1-3)[Man(a1-6)]Man
How it was run: as §1

[17] = biological target: Man(a1-3)[Man(a1-6)]Man(a1-6)[Man(a1-2)Man(a1-3)]Man(b1-4)GlcNAc(b1-4)GlcNAc
How it was run: as §1

[18] = biological target: Man(a1-3)[Man(a1-6)]Man(a1-6)[Man(a1-3)]Man
How it was run: as §1

[19] = biological target: Man(a1-3)[Man(a1-6)]Man(a1-6)[Man(a1-3)]Man(b1-4)GlcNAc(b1-4)GlcNAc
How it was run: as §1

[20] = biological target: Man(a1-3)[Man(a1-6)]Man(b1-4)GlcNAc(b1-4)GlcNAc
How it was run: as §1

[21] = biological target: Man(a1-3)[Man(a1-6)]Man(b1-4)GlcNAc(b1-4)[Fuc(a1-6)]GlcNAc
How it was run: as §1

Man(a1-6)Man = biological target: Man(a1-6)Man
How it was run: as §1

Man(b1-4)GlcNAc = biological target: Man(b1-4)GlcNAc
How it was run: as §1

MurNAc(b1-4)GlcNAc = biological target: MurNAc(b1-4)GlcNAc
How it was run: as §1

Neu5Ac(a2-3)Gal = biological target: Neu5Ac(a2-3)Gal
How it was run: as §1

[22] = biological target: Neu5Ac(a2-3)Gal(b1-3)GalNAc
How it was run: as §1

[23] = biological target: Neu5Ac(a2-3)Gal(b1-3)GalNAc(b1-3)Gal(a1-4)Gal(b1-4)Glc
How it was run: as §1

B1: PpFlo1 (Pichia pastoris) (protein)
chain: MGSSHHHHHHSSGLVPRGSHMQESGDGDISDSAYACDIDATRYDGFNATIYEFQPGDGRLTRDPVFMSTGYLNRTQLHSITGVTDPGFSIYTPGVPTTTLYGIPNVNWENLLLELKGYFRAEVSGDYGLSLRNIDDSAILFFGKETAFQCCNENSISNEASTDYSLFTIFRQEGDETTNLDSFTYTQYLEAGKYYPVRTFFVNIERHAVFNFTMTLPDGTELTDFHNYIYQFGALDEEQCQA
**Q.** What does the source list for B1?
**A.** glycan array binding signal (z-score) [1]: -0.586; glycan array binding signal (z-score) (GlcNAc(b1-4)GlcNAc): -0.231; glycan array binding signal (z-score) [2]: -0.439; glycan array binding signal (z-score) [3]: -0.26; glycan array binding signal (z-score) [4]: -0.358; glycan array binding signal (z-score) [5]: -0.617; glycan array binding signal (z-score) [6]: -0.375; glycan array binding signal (z-score) (GlcNAc(b1-6)GalNAc): -0.373; glycan array binding signal (z-score) (GlcNAc3Prop(b1-4)GlcNAc): -0.063; glycan array binding signal (z-score) [7]: -0.417; glycan array binding signal (z-score) (Kdn(a2-3)Gal(b1-3)GalNAc): -0.254; glycan array binding signal (z-score) (Kdn(a2-3)Gal(b1-3)GlcNAc): -0.318; glycan array binding signal (z-score) (Kdn(a2-3)Gal(b1-4)Glc): -0.2; glycan array binding signal (z-score) (Kdn(a2-3)Gal(b1-4)GlcNAc): -0.224; glycan array binding signal (z-score) [8]: -0.255; glycan array binding signal (z-score) (Kdn(a2-6)Gal(b1-4)GlcNAc): -0.505; glycan array binding signal (z-score) [9]: -0.28; glycan array binding signal (z-score) [10]: -0.385; glycan array binding signal (z-score) (Man(a1-2)Man(a1-3)Man): -0.662; glycan array binding signal (z-score) [11]: -0.425; glycan array binding signal (z-score) [12]: -0.089; glycan array binding signal (z-score) [13]: 0.237; glycan array binding signal (z-score) [14]: -0.06; glycan array binding signal (z-score) [15]: -0.565; glycan array binding signal (z-score) [16]: -0.128; glycan array binding signal (z-score) (Man(a1-3)[Man(a1-6)]Man): -0.074; glycan array binding signal (z-score) [17]: -0.017; glycan array binding signal (z-score) [18]: -0.435; glycan array binding signal (z-score) [19]: -0.052; glycan array binding signal (z-score) [20]: -0.237; glycan array binding signal (z-score) [21]: -0.358; glycan array binding signal (z-score) (Man(a1-6)Man): -0.317; glycan array binding signal (z-score) (Man(b1-4)GlcNAc): -0.39; glycan array binding signal (z-score) (MurNAc(b1-4)GlcNAc): -0.467; glycan array binding signal (z-score) (Neu5Ac(a2-3)Gal): -0.548; glycan array binding signal (z-score) [22]: -0.261; glycan array binding signal (z-score) [23]: -0.569
